Out of some 52,000 compounds screened, about 1,700 (3.3%) were called active. Rule as the data show it: active = survival mostly below about 52% (no sharp cut-off); inactive = mostly above about 56%. This is one part of the list.

This assay has as its system Wild type. Kind of assay: growth inhibition of S. aureus wild type versus tarO mutant, primary screen, teichoic acid synthesis inhibitors, RN4220, OD600 (AID 463173). To be noted: S. aureus RN4220 wild type/DeltatarO growth, OD600, 18 h, hits give low values, screened at 18.75 µg/mL (by protocol).
`CC(=O)c1cccc(S(=O)(=O)NCCc2csc3nc(-c4ccc(F)cc4)nn23)c1`: the survival is inactive: 75%. Regarding `O=C1CCC(C2CCC(=O)N2)N1` (centres undefined), the survival was inactive: 99%. Consider `Cc1nc(CC(=O)Nc2cccc(C)c2C)cs1`, for which the survival was inactive: 86%. With `COc1ccc(C(=O)NCc2ccc3c(c2)CCN3C(=O)c2ccncc2)cc1`, the survival was inactive: 75%. Turning to `COc1ccc(OC)c(NC(=O)c2c(NCc3ccc(C)o3)sc3c2CCC(C)C3)c1` (centres undefined), the survival was inactive: 64%.

As for `O=S(=O)(c1ccc2ccccc2c1)n1nc(-c2ccco2)nc1NCc1ccc(F)cc1`, the survival is inactive: 116%. In the case of `Cc1cc(C)cc(C(=O)N(Cc2nc(-c3ccc(Cl)cc3)no2)C(C)C)c1`, the survival is inactive: 17%. For `CCOc1ccccc1NC(=O)CN1C(=O)CC(c2ccco2)Sc2ccccc21` (centres undefined), the survival is inactive: 92%. As to `Cc1cc(NC(=O)CCCn2c(C)c3cnn(-c4ccccc4)c(=O)c3c2C)ccc1Br`, the survival is inactive: 76%. As for `CCN(C(=O)CSc1ncc(S(=O)(=O)c2ccc(C)c(Cl)c2)c(=O)[nH]1)c1cccc(C)c1`, the survival was inactive: 95%. As to `COCCNC(=O)C(=O)NCC(c1ccc2c(c1)OCO2)N1CCOCC1` (centres undefined), the survival was active: -3%. With `COCCCNC(=O)c1c(NC(=O)c2nc(S(C)(=O)=O)ncc2Cl)sc2c1CCCC2`, the survival is inactive: 75%.

On to `Cc1ccc(C(=O)Nc2ccc(-c3nc4ccccc4s3)c(O)c2)c(C)c1`, for which the survival was inactive: 91%.

With `CCCCN(C)CCNC(=O)c1cc(=O)[nH]c2ccc(S(=O)(=O)N3CCCCCC3)cc12`, the survival was inactive: 71%. For the compound `Cc1cc(NC(=O)c2ccc(-c3ccc(Cl)cc3)o2)cc(-c2nc3ncccc3o2)c1O`, the survival was inactive: 73%. Regarding `Cc1ccc(CNC(=O)c2cnc(N(C)C)nc2)cc1`, the survival is inactive: 126%. On to `COc1ccc(-c2nc(C(=O)Nc3cccc(C(C)=O)c3)nn2-c2ccc(Cl)cc2)cc1`, for which the survival is inactive: 113%. On to `Cc1ccccc1C(C(=O)Nc1ccc(F)cc1)N(Cc1ccco1)C(=O)Cn1nnc2ccccc21` (centres undefined), for which the survival is inactive: 122%. As for `Cc1ccc(NC(=O)c2ncn(-c3ccccc3)n2)cc1Cl`, the survival is inactive: 83%.

With `COc1ccc(NC(=O)c2oc3ccccc3c2NC(=O)c2cc(=O)c3c(C)cc(C)cc3o2)cc1`, the survival is inactive: 84%. Take `Cc1nc(-n2nc(C)c(Cc3ccccc3Cl)c2C)sc1C(=O)N1CCCCC1C` (centres undefined): the survival was inactive: 71%. As for `Cc1ccc(NC(=O)CS(=O)(=O)c2nc(-c3ccc(C)cc3)cn2-c2ccc(C)cc2)cc1`, the survival was inactive: 93%.

With `Cc1ccc(CSc2n[nH]c(-c3ccccc3O)n2)cc1`, the survival was inactive: 105%.

Consider `CCOc1ccccc1NC(=O)CC1C(=O)NCCN1C(=O)c1ccc(F)cc1` (centres undefined), for which the survival was inactive: 71%.

The values above are taken from PubChem BioAssay AID463173 (ICCB-Longwood Screening Facility, Harvard Medical School, 2010).
